Out of some 310,000 compounds screened, about 14,000 (4.5%) showed an effect of 50% or more. Effects have a minus sign here. The list shows a part of the results.
biological target: human ether-à-go-go-related gene (hERG) potassium channel (human, UniProt Q12809); assay: primary screen, population patch clamp on CHO cells stably expressing hERG
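Further: peak tail current of the secondary pulse compared with the same well before compound.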

human ether-à-go-go-related gene (hERG) potassium channel, sequence (Q12809 whole entry, looked up): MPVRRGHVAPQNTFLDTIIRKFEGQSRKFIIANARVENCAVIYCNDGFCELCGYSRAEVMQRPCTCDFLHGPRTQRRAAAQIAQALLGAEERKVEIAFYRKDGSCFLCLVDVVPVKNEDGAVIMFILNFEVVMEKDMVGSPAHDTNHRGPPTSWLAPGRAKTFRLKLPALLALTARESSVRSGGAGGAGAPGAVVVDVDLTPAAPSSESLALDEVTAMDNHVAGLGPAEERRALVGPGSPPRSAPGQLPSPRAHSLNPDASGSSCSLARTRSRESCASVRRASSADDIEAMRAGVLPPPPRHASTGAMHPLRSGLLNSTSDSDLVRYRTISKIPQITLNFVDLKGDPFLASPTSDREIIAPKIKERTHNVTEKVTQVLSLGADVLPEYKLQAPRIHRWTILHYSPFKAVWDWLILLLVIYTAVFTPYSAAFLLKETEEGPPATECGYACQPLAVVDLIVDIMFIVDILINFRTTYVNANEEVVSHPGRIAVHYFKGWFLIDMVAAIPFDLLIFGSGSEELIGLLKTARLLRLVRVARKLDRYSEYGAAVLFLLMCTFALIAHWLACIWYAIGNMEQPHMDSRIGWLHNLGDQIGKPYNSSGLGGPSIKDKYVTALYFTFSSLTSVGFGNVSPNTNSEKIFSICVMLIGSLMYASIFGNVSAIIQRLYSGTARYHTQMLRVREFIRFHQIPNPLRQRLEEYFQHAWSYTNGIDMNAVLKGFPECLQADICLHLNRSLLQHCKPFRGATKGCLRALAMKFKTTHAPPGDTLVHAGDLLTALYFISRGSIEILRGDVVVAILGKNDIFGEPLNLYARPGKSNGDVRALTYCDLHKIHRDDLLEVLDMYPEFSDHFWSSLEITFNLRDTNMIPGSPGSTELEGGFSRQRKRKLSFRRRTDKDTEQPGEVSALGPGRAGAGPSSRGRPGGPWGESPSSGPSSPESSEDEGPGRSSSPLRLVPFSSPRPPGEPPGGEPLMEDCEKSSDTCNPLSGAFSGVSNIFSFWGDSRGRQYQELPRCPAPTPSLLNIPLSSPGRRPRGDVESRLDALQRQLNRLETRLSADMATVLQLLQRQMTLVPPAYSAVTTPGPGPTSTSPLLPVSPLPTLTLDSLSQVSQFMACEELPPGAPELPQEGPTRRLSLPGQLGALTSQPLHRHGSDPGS

SMILES | hERG current change (%, negative = inhibition) at 10uM [%]
CC[C@@H]1Cc2cc(O)ccc2C2=C1c1ccc(O)cc1C[C@H]2CC | -14.3
CN1C(=O)N(CN2CCCCC2)C2C1N(C)C(=O)N2CN1CCCCC1 (stereo not drawn) | -19.9
C=CCn1c(-c2cccs2)nc2nc3ccccc3nc21 | -15.6
CCOP(=O)(C#CC(C)(C)C)C(C)(O)c1ccccc1 (stereo not drawn) | 14
O=C1C=C(c2ccnc3cc(Cl)ccc23)C[C@@H](c2ccc3c(c2)OCO3)C1 | -26.3
CCc1ccc(C2C(C(=O)O)c3ccccc3C(=O)N2C)cc1 (stereo not drawn) | -1.37
O=C(NC1(Cc2ccc(O)cc2)CCCCC1)c1ccccc1 | -23.3
CC1(O)N(Cc2ccccc2)C(=O)OC12CCCCC2 (stereo not drawn) | 9.89
Cc1ccc(NC(=O)C2CCN(S(=O)(=O)c3ccc4c(c3)OCCO4)CC2)c(O)c1 | -8.51
Cc1cc(C)n(CC(O)COc2ccccc2Br)n1 (stereo not drawn) | 7.02
COc1ccccc1N(CC(O)CN1CCCCC1)S(=O)(=O)c1ccc(C)cc1 (stereo not drawn) | -29.7
O=C(NCc1ccncc1)c1ccc(Cl)c(S(=O)(=O)N2CCCCC2)c1 | -22.4
Cc1cc(C)nc(NC(=O)Nc2ccc3c(c2)OCO3)c1 | 13.3
COc1ccccc1/C=N/n1c(N)c(S(=O)(=O)c2cccs2)c2nc3ccccc3nc21 | 11
CC(Sc1nc(O)c(-c2ccccc2)c(=O)[nH]1)C(=O)Nc1ccc(Cl)cc1 (stereo not drawn) | 26.9
Cc1cc(C)n(C2CC(=O)N(c3cc(Cl)cc(Cl)c3)C2=O)n1 (stereo not drawn) | 4.5
CN=C1SC(CC(=O)Nc2ccc(C(=O)O)cc2)C(=O)N1C (stereo not drawn) | 2.83
O=C(Cn1cnc2c(nc3n2CCCCC3)c1=O)Nc1cccc(C(F)(F)F)c1 | -52.3
CCOC(=O)c1c(NC(=O)CC2Sc3ccc(C(F)(F)F)cc3NC2=O)sc(C)c1C (stereo not drawn) | 8.96
CC(C)c1nnc(NC(=O)CS(=O)(=O)Cc2ccccc2)s1 | 1.77
N#CCN1CCC2(O)CCCCC2C1c1ccc2c(c1)OCO2 (stereo not drawn) | -27.9
CC(=O)Nc1ccc(S(=O)(=O)NCCSCc2c(Cl)cccc2Cl)cc1 | 8.43
O=C(CCN1C(=O)S/C(=C\c2ccc(Cl)cc2)C1=O)Nc1ccc(C(=O)O)cc1 | 14.9
CCCNC(=O)C1CCN(c2ccc(S(=O)(=O)N3CCOCC3)cc2Cl)CC1 | 6.36
O=C1CC(C(=O)Nc2ccccc2)C2(CCCC2)O1 (stereo not drawn) | 3.49
COc1ccc(OC)c(C2CC(c3ccc(NS(C)(=O)=O)cc3)=NN2C(=O)c2ccccc2)c1 (stereo not drawn) | -67.2
CCOP(=O)(OCC)/C(=N/OC(=O)c1ccc(OC)cc1)C(N)=O | 20.7

SMILES | hERG current change (%, negative = inhibition) at 10uM [%]
O=C(N/N=C/C=C/c1ccccc1)c1ccc(Br)cc1 | -6.53
Cc1ccc(Nc2nc(NCCO)nc3c2cnn3C)cc1Cl | 11.7
CCN(c1cccc(C(F)(F)F)c1)S(=O)(=O)c1ccc2c(c1)CCN2C(C)=O | -2.77
O=C(Nc1nccs1)c1cc2c(s1)CCCCC2 | 6.98
CCOC(=O)c1ccc(NC(=O)CN2C(=O)C(CC)SC(CC)C2=O)cc1 (stereo not drawn) | -9.04
C=CCOC(=O)C1=C[C@H](C2CCCCC2)C[C@H](OCc2ccc(CO)cc2)O1 | -1.78
COc1cccc(CN2CCNC(=O)C2CC(=O)NCC2CCOCC2)c1 (stereo not drawn) | 15.9
O=c1[nH]c2ccccc2cc1-c1nnn(-c2ccc(Cl)c(Cl)c2)n1 | 5.79
COc1ccc(CCN(C)C(=O)N2CCOCC2)cc1OC | 15.3
O=C(OCc1ccc(F)cc1)c1cc(S(=O)(=O)N2CCCCC2)ccc1N1CCOCC1 | 2.16
Cc1ccc(S(=O)(=O)c2nnn3c2nc(N2CCN(c4ccccn4)CC2)c2ccccc23)cc1C | 2.74
CCCNc1nc(-c2ccccc2)c(C(=O)OCC)cc1C#N | -13.4
O=C(CN1CCCCC1)Nc1ccc(NC(=O)c2ccc(Cl)cc2)cc1Cl | 13.7
Cn1c(SCc2cccnc2)nnc1-c1c[nH]c2ccccc12 | -5.78
O=C1[C@H]2[C@@H](c3ccc(Cl)cc3)N3C(=O)N(c4cccc(F)c4)C(=O)[C@@]3(Cc3ccc(Cl)cc3)[C@H]2C(=O)N1C1CCCCC1 | 8.25
CCn1nnnc1SCC(=O)Nc1ccc2c(c1)OCO2 | 6.66
O=C(O)c1ccccc1/C=N/N1CCN(C2c3ccccc3-c3ccccc32)CC1 | -18.7
COc1cccc(CNC(=O)Cc2ccc(NC3=NC4CS(=O)(=O)CC4S3)cc2)c1 (stereo not drawn) | 8.9
COc1ccc(COn2nnc3ccc(S(=O)(=O)N4CCOCC4)cc32)cc1F | -40.8
COc1ccc(OCc2nc(N)nc(Nc3ccccc3)n2)cc1 | -4.98
CCOC(=O)C(C)Sc1snnc1C (stereo not drawn) | 8.98
COc1ccc(C(C(=O)NC(C)(C)C)N(C(=O)CCC(=O)Nc2cc(C)on2)c2cc(C)cc(C)c2)cc1 (stereo not drawn) | -5.36
COc1ccc(-c2noc(CCC(=O)Nc3ccc(C)c(C)c3)n2)cc1 | 0.384
COc1ccc(C(=O)N2CCN(Cc3cc(OC)c(O)c(OC)c3)CC2)cc1OC.O=C(O)C(=O)O | 8.89
Cc1nc2ccc(NC(=O)c3ccc(N4C(=O)CCC4=O)cc3)cc2s1 | 17.1
CC(C)(C)NC(=O)COC(=O)/C=C/c1ccccc1[N+](=O)[O-] | 9.61
FC(F)(F)c1cccnc1-n1cncn1 | 10.7
